In all, about 310,000 compounds went through this assay and about 14,000 (4.5%) showed an effect of 50% or more. Effects have a minus sign here. The list shows a part of the results.
What follows are molecules tested against human ether-à-go-go-related gene (hERG) potassium channel (human, UniProt Q12809) (assay: primary screen, population patch clamp on CHO cells stably expressing hERG).
human ether-à-go-go-related gene (hERG) potassium channel, sequence (Q12809 whole entry, looked up): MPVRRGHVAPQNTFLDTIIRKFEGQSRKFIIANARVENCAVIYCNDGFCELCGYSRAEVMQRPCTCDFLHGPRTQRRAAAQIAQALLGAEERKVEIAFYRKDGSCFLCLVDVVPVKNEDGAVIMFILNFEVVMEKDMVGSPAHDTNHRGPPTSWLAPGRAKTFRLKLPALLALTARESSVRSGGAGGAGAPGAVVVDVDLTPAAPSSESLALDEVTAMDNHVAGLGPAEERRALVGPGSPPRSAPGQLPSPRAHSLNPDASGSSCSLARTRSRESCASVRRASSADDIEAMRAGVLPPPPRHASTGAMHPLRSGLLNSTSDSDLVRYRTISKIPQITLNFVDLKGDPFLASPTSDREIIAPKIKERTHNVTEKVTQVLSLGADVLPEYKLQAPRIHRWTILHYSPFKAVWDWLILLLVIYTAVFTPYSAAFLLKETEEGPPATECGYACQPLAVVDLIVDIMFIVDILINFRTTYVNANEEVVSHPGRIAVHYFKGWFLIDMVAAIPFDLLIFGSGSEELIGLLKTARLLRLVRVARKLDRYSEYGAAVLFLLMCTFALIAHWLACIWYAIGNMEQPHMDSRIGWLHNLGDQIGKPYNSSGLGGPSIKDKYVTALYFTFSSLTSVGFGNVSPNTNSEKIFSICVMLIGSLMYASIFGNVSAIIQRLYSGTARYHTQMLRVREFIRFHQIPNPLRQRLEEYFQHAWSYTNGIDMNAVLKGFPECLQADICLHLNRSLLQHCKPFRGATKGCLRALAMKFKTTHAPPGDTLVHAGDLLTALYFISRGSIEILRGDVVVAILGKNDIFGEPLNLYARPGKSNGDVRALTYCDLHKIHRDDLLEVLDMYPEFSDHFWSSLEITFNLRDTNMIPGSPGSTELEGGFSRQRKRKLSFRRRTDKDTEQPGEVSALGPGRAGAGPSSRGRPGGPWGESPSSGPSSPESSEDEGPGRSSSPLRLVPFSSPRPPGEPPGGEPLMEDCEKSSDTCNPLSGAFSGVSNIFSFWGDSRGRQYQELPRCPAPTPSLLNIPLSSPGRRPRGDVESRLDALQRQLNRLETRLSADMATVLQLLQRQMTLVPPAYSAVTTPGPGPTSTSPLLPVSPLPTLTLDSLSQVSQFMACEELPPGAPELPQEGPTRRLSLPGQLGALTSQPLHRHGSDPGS
`Cc1ccc2nc(SCC(=O)Nc3ccc4c(c3)OCO4)nc(=O)n2c1` was tested, and the “hERG current change (%, negative = inhibition) at 10uM” value was 16%.
For `Cc1ccc(C)n1-c1ccc(C(=O)Nc2ccccc2F)cc1`, the “hERG current change (%, negative = inhibition) at 10uM” value was -6.46%.
`CC(=O)c1cccc(N(C(=O)c2ccco2)C(C(=O)NC2CCCCC2)c2ccc(C)o2)c1` (stereo not shown) was tested, and the “hERG current change (%, negative = inhibition) at 10uM” value was -21.6%.
With `COC(=O)C1=C[C@@H](C(=O)OC)[C@@H]2C3=C(C(=O)C2(C)C)[C@H](C)n2c(=O)n(-c4ccccc4)c(=O)n2[C@@H]3C1` the “hERG current change (%, negative = inhibition) at 10uM” value was 8.48%.
For `Cc1ccc(CNc2nc(N)c([N+](=O)[O-])c(NCCO)n2)cc1`, the “hERG current change (%, negative = inhibition) at 10uM” value was -9.64%.
In the case of `CC1CN(CCOCCOc2ccccc2-c2ccccc2)CC(C)O1.O=C(O)C(=O)O` (stereo not shown), the “hERG current change (%, negative = inhibition) at 10uM” value is reported as -13.5%.
In the case of `O=Cc1ccc(OC(=O)c2cccnc2)cc1`, the “hERG current change (%, negative = inhibition) at 10uM” value is reported as 9.31%.
For `CCOc1ccc(S(=O)(=O)N/N=C(\C)c2ccc(Cl)c(Cl)c2Cl)cc1`, the “hERG current change (%, negative = inhibition) at 10uM” value was 21.2%.
With `Cc1ccc(-c2nc(S(=O)(=O)c3ccccc3)c(SCC(=O)NCC3CCCO3)o2)cc1` (stereo not shown) the “hERG current change (%, negative = inhibition) at 10uM” value was 16.9%.
For `COc1ccc(/C=N/NC(=O)c2cc(-c3ccccc3)nc3ccccc23)c(OC)c1`, the “hERG current change (%, negative = inhibition) at 10uM” value was 10.1%.
In the case of `Cc1cc(C)nc(NC2=NCC(=O)N2c2ccccc2)n1`, the “hERG current change (%, negative = inhibition) at 10uM” value is reported as 8.37%.
`Cc1nc2sc(C(c3ccccc3)N3CC(C)OC(C)C3)c(O)n2n1` (stereo not shown) was tested, and the “hERG current change (%, negative = inhibition) at 10uM” value was 4.05%.
In the case of `COc1ccc(C(=O)Oc2ccc(/C=N/Nc3ccc(Cl)c(C(=O)O)c3)cc2OC)cc1`, the “hERG current change (%, negative = inhibition) at 10uM” value is reported as 6.85%.
`Cc1ccccc1NC(=O)c1nn(C)c(C(=O)Nc2ccccc2C)c1[N+](=O)[O-]` was tested, and the “hERG current change (%, negative = inhibition) at 10uM” value was 0.0696%.
In the case of `COc1ccc(C2=NOC(C(=O)Nc3ccc4c(c3)OCCO4)C2)cc1OC` (stereo not shown), the “hERG current change (%, negative = inhibition) at 10uM” value is reported as 8.21%.
For `N#C/C(=C\c1cc2ccccc2nc1N1CCCCC1)C(N)=O`, the “hERG current change (%, negative = inhibition) at 10uM” value was -8.65%.
For `O=C(CCCN1C(=O)/C(=C/c2ccccc2Cl)SC1=S)NNC(=O)c1ccccc1Cl`, the “hERG current change (%, negative = inhibition) at 10uM” value was 29.8%.
With `Cc1ccc(CN2CC(C(=O)NNC(=O)Cn3ccc(C(F)(F)F)n3)CC2=O)cc1` (stereo not shown) the “hERG current change (%, negative = inhibition) at 10uM” value was -1.57%.
With `Cc1noc(C)c1CSc1nnc(-c2ccccc2)n1Cc1ccco1` the “hERG current change (%, negative = inhibition) at 10uM” value was -21.9%.
For `COc1ccc(/C=C/C(=O)OCC(=O)NCCC2=CCCCC2)cc1S(=O)(=O)N1CCOCC1`, the “hERG current change (%, negative = inhibition) at 10uM” value was -10.7%.
For `CCc1onc(C)c1C(=O)Nc1ccc2c(c1)OCO2`, the “hERG current change (%, negative = inhibition) at 10uM” value was 20.1%.
In the case of `O=C(c1cn(-c2ccccc2)nc1-c1cccs1)N1CCN(c2ccccc2)CC1`, the “hERG current change (%, negative = inhibition) at 10uM” value is reported as 6.1%.
With `O=[N+]([O-])c1cccnc1Sc1ccc(Br)cc1` the “hERG current change (%, negative = inhibition) at 10uM” value was 1.62%.
For `Cc1ccc(S(=O)(=O)N2CCC(C(=O)NCCc3ccccn3)CC2)cc1`, the “hERG current change (%, negative = inhibition) at 10uM” value was -1.52%.
`CN(CC(=O)Nc1cccc(F)c1)C(=O)c1ccc(COc2ccccc2)o1` was tested, and the “hERG current change (%, negative = inhibition) at 10uM” value was 17.9%.
In the case of `O=C(Nc1cccc2ccccc12)N1N=CCC1c1ccccc1` (stereo not shown), the “hERG current change (%, negative = inhibition) at 10uM” value is reported as 15.9%.
In the case of `COc1ccc2c(c1)C1CC(C)(NC(=O)C1C(=O)c1ccccc1)O2` (stereo not shown), the “hERG current change (%, negative = inhibition) at 10uM” value is reported as -30.3%.
For `S=c1[nH]nc(C2CC2c2ccc(Cl)cc2)n1-c1ccc(Cl)cc1` (stereo not shown), the “hERG current change (%, negative = inhibition) at 10uM” value was 28.8%.
For `Nn1c(SC/C=C/c2ccccc2)nnc1-c1cccnc1`, the “hERG current change (%, negative = inhibition) at 10uM” value was 23.4%.
`C#CC(C)(C)NC(=O)c1ccccc1OC` was tested, and the “hERG current change (%, negative = inhibition) at 10uM” value was 1.69%.
With `c1cc2c(cc1C1=NNC(=NC3CC3)SC1)OCCO2` the “hERG current change (%, negative = inhibition) at 10uM” value was 16.8%.
`CCCNC(=O)N1CCC(c2nc3ccccc3s2)CC1` was tested, and the “hERG current change (%, negative = inhibition) at 10uM” value was -16.8%.
For `CC(=O)Nc1ccc(NC(=O)C(C)Sc2nnc(C3CC3)n2-c2ccccc2)cc1` (stereo not shown), the “hERG current change (%, negative = inhibition) at 10uM” value was 8.37%.
With `O=C(NN=C1CCCCCCCCCCC1)c1ccccc1F` the “hERG current change (%, negative = inhibition) at 10uM” value was 6.38%.
`O=C(NCc1ccccc1)c1ccc2nccnc2c1` was tested, and the “hERG current change (%, negative = inhibition) at 10uM” value was 1.37%.
For `COC(=O)c1ccccc1NS(=O)(=O)c1ccc(F)cc1`, the “hERG current change (%, negative = inhibition) at 10uM” value was -17.4%.
For `COCc1cc(C)nc(SCC(=O)Oc2ccc(Cl)cc2)c1C#N`, the “hERG current change (%, negative = inhibition) at 10uM” value was 4.5%.
In the case of `CN(C(=O)CSc1ncnc2ccccc12)C1CCS(=O)(=O)C1` (stereo not shown), the “hERG current change (%, negative = inhibition) at 10uM” value is reported as -3.37%.
With `COc1ccc(CC(=O)N/N=C(/C)CC(=O)N(C)c2ccccc2)cc1` the “hERG current change (%, negative = inhibition) at 10uM” value was 9.63%.
With `CCOC(=O)C1CCCN(c2cc(=O)n(C3CCCCC3)c(=O)[nH]2)C1` (stereo not shown) the “hERG current change (%, negative = inhibition) at 10uM” value was -1.79%.
`COCCn1c(SCC(=O)N(C)C2CCS(=O)(=O)C2)nc2ccccc2c1=O` (stereo not shown) was tested, and the “hERG current change (%, negative = inhibition) at 10uM” value was -12.1%.
For `O=C(CP(=O)(c1ccccc1)c1ccccc1)N/N=C/c1cc(Br)cc(Br)c1O`, the “hERG current change (%, negative = inhibition) at 10uM” value was 11.9%.
In the case of `CC(=O)Nc1ccc(/C=N/NC(=O)c2cc3ccccc3nc2C)cc1`, the “hERG current change (%, negative = inhibition) at 10uM” value is reported as 7.23%.

Reference: article PMC4336329 (PLoS ONE, 2015)
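Note: peak tail current of the secondary pulse compared with the same well before compound.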
